Test results taken from the supplement of paper PMC8728848.
This is one part of the list.

What was measured:
Assay in all cases: glycan array binding signal (z-score within array); higher = stronger binding
Conditions in all cases: glycan notation: IUPAC condensed, linker removed
[1] = biological target: Fuc(a1-2)Gal(b1-4)GlcNAc(b1-3)Gal(b1-4)GlcNAc(b1-2)Man(a1-3)[Fuc(a1-2)Gal(b1-4)GlcNAc(b1-3)Gal(b1-4)GlcNAc(b1-2)Man(a1-6)]Man(b1-4)GlcNAc(b1-4)GlcNAc
Outline: (§1)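 The Consortium for Functional Glycomics database supplied 3228 glycan arrays, of which those lacking an available protein sequence were dropped. The binding signal, a within-array Z-score, was averaged across arrays of the same protein sequence and across linkers. Negative scores can be read as non-binding.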

[2] = biological target: Fuc(a1-2)Gal(b1-4)GlcNAc(b1-3)Gal(b1-4)GlcNAc(b1-3)Gal(b1-4)GlcNAc
Outline: as §1

[3] = biological target: Fuc(a1-2)Gal(b1-4)GlcNAc(b1-3)GalNAc
Outline: as §1

[4] = biological target: Fuc(a1-2)Gal(b1-4)GlcNAc(b1-3)[Fuc(a1-2)Gal(b1-4)GlcNAc(b1-6)]GalNAc
Outline: as §1

[5] = biological target: Fuc(a1-2)Gal(b1-4)GlcNAc(b1-3)[Fuc(a1-3)[Gal(b1-4)]GlcNAc(b1-6)]Gal(b1-4)Glc
Outline: as §1

[6] = biological target: Fuc(a1-2)Gal(b1-4)GlcNAc(b1-6)GalNAc
Outline: as §1

[7] = biological target: Fuc(a1-2)Gal(b1-4)GlcNAc6S
Outline: as §1

[8] = biological target: Fuc(a1-2)Gal(b1-4)[Fuc(a1-3)]GlcNAc
Outline: as §1

[9] = biological target: Fuc(a1-2)Gal(b1-4)[Fuc(a1-3)]GlcNAc(b1-2)Man(a1-3)[Fuc(a1-2)Gal(b1-4)[Fuc(a1-3)]GlcNAc(b1-2)Man(a1-6)]Man(b1-4)GlcNAc(b1-4)[Fuc(a1-6)]GlcNAc
Outline: as §1

[10] = biological target: Fuc(a1-2)Gal(b1-4)[Fuc(a1-3)]GlcNAc(b1-2)[Fuc(a1-2)Gal(b1-4)[Fuc(a1-3)]GlcNAc(b1-4)]Man(a1-3)[Fuc(a1-2)Gal(b1-4)[Fuc(a1-3)]GlcNAc(b1-2)Man(a1-6)]Man(b1-4)GlcNAc(b1-4)GlcNAc
Outline: as §1

[11] = biological target: Fuc(a1-2)Gal(b1-4)[Fuc(a1-3)]GlcNAc(b1-3)Gal(b1-4)[Fuc(a1-3)]GlcNAc
Outline: as §1

[12] = biological target: Fuc(a1-2)Gal(b1-4)[Fuc(a1-3)]GlcNAc(b1-3)Gal(b1-4)[Fuc(a1-3)]GlcNAc(b1-3)Gal(b1-4)[Fuc(a1-3)]GlcNAc
Outline: as §1

[13] = biological target: Fuc(a1-2)Gal(b1-4)[Fuc(a1-3)]GlcNAc(b1-3)GalNAc
Outline: as §1

[14] = biological target: Fuc(a1-2)Gal(b1-4)[Fuc(a1-3)]GlcNAc(b1-3)[Neu5Ac(a2-6)Gal(b1-4)GlcNAc(b1-6)]Gal(b1-4)Glc
Outline: as §1

[15] = biological target: Fuc(a1-2)Gal3S(b1-4)GlcNAc
Outline: as §1

[16] = biological target: Fuc(a1-2)Gal6S(b1-3)GlcNAc
Outline: as §1

[17] = biological target: Fuc(a1-2)Gal6S(b1-3)GlcNAc6S
Outline: as §1

Fuc(a1-2)Gal6S(b1-4)Glc = biological target: Fuc(a1-2)Gal6S(b1-4)Glc
Outline: as §1

[18] = biological target: Fuc(a1-2)Gal6S(b1-4)Glc6S
Outline: as §1

Fuc(a1-2)[Gal(a1-3)]Gal = biological target: Fuc(a1-2)[Gal(a1-3)]Gal
Outline: as §1

[19] = biological target: Fuc(a1-2)[Gal(a1-3)]Gal(b1-3)GalNAc
Outline: as §1

[20] = biological target: Fuc(a1-2)[Gal(a1-3)]Gal(b1-3)GalNAc(b1-3)Gal(a1-4)Gal(b1-4)Glc
Outline: as §1

[21] = biological target: Fuc(a1-2)[Gal(a1-3)]Gal(b1-3)GlcNAc
Outline: as §1

[22] = biological target: Fuc(a1-2)[Gal(a1-3)]Gal(b1-3)GlcNAc(b1-2)Man(a1-3)[Fuc(a1-2)[Gal(a1-3)]Gal(b1-3)GlcNAc(b1-2)Man(a1-6)]Man(b1-4)GlcNAc(b1-4)GlcNAc
Outline: as §1

[23] = biological target: Fuc(a1-2)[Gal(a1-3)]Gal(b1-3)GlcNAc(b1-2)Man(a1-3)[Fuc(a1-2)[Gal(a1-3)]Gal(b1-3)GlcNAc(b1-2)Man(a1-6)]Man(b1-4)GlcNAc(b1-4)[Fuc(a1-6)]GlcNAc
Outline: as §1

[24] = biological target: Fuc(a1-2)[Gal(a1-3)]Gal(b1-3)GlcNAc(b1-3)GalNAc
Outline: as §1

[25] = biological target: Fuc(a1-2)[Gal(a1-3)]Gal(b1-3)GlcNAc(b1-6)GalNAc
Outline: as §1

[26] = biological target: Fuc(a1-2)[Gal(a1-3)]Gal(b1-4)Glc
Outline: as §1

[27] = biological target: Fuc(a1-2)[Gal(a1-3)]Gal(b1-4)GlcNAc
Outline: as §1

[28] = biological target: Fuc(a1-2)[Gal(a1-3)]Gal(b1-4)GlcNAc(b1-2)Man
Outline: as §1

B1: MpAFP NterminalRI GFP (Marinomonas primoryensis) (protein)
chain: MSDNQFPFATLGNAIGFITKLDGSVTVQSIDGQERVLKLGDPIFFGETVLTGGSGSVTIAFVDGTDVVIGGDSIVEMTDEIYNTGDNEDLVADSSSEIDALQNAILAGDDPTLIQDAPAAGNTLADQQRVDVSIERNDNSAQAGFGVDTQSSLPTYGYDTDNGNGGQATEREYSAPSLSRTLNQSPLLEHHHHHH
glycan array binding signal (z-score) [1]: 0.233
glycan array binding signal (z-score) [2]: -0.069
glycan array binding signal (z-score) [3]: 0.733
glycan array binding signal (z-score) [4]: -0.466
glycan array binding signal (z-score) [5]: -0.232
glycan array binding signal (z-score) [6]: 1.68
glycan array binding signal (z-score) [7]: -0.585
glycan array binding signal (z-score) [8]: -0.237
glycan array binding signal (z-score) [9]: 0.532
glycan array binding signal (z-score) [10]: 0.393
glycan array binding signal (z-score) [11]: -0.147
glycan array binding signal (z-score) [12]: -0.322
glycan array binding signal (z-score) [13]: 0.29
glycan array binding signal (z-score) [14]: -0.416
glycan array binding signal (z-score) [15]: -0.495
glycan array binding signal (z-score) [16]: -0.059
glycan array binding signal (z-score) [17]: 0.041
glycan array binding signal (z-score) (Fuc(a1-2)Gal6S(b1-4)Glc): -0.519
glycan array binding signal (z-score) [18]: -0.356
glycan array binding signal (z-score) (Fuc(a1-2)[Gal(a1-3)]Gal): -0.494
glycan array binding signal (z-score) [19]: 0.413
glycan array binding signal (z-score) [20]: -0.022
glycan array binding signal (z-score) [21]: -0.192
glycan array binding signal (z-score) [22]: -0.171
glycan array binding signal (z-score) [23]: -0.062
glycan array binding signal (z-score) [24]: -0.352
glycan array binding signal (z-score) [25]: -0.004
glycan array binding signal (z-score) [26]: -0.151
glycan array binding signal (z-score) [27]: -0.537
glycan array binding signal (z-score) [28]: -0.243
